# From PubChem BioAssay (NCATS)
# Inconclusive results, whose numbers are uncertain, are shown with a selection of clear calls. Potencies of inconclusive entries are doubtful fits and often do not repeat. Activity calls are given as the source filed them. The call rests on the fitted dose curve; in most records, active means well fitted curve in the direction sought with a large enough effect; inconclusive means small, poorly fitted or top-dose-only effect, or another doubt; inactive means no such curve, though single readings can be large; an effect the other way counts as inactive or inconclusive.
# Legend:
# [1] = BET inhibitor-based combinations targeting novel dependencies in MECOM-rearranged (r) AML: UCSD-AML1 cell line (AID 2202235); further: nearly all actives have a fitted effect of over 40% in size
# Method in brief: (§1)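 Using pin-tool transfer, drugs were added in 11 doses to cells (500/well), incubated 48 hr, and assessed with CellTiter-Glo. Z-AUC is a mean-centring transformation applied separately to each screened line.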
# [2] = BET inhibitor-based combinations targeting novel dependencies in MECOM-rearranged (r) AML: HNT-34 cell line (AID 2202234); further: nearly all actives have a fitted effect of over 35% in size
# Method in brief: as §1
# [3] = BET inhibitor-based combinations targeting novel dependencies in MECOM-rearranged (r) AML: AML-191 cell line (AID 2202236; further: nearly all actives have a fitted effect of over 35% in size)
# Method in brief: (§2)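 Viability of cells (500 per well) is scored by luminescent CellTiter-Glo at 48 hr post-dosing. Eleven-point titrations are normalized to DMSO and empty controls and reduced to AUC values.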
# [4] = BET inhibitor-based combinations targeting novel dependencies in MECOM-rearranged (r) AML: AML-194 cell line (AID 2202237; further: nearly all actives have a fitted effect of over 40% in size)
# Method in brief: as §2
# Potency means the concentration at half of the fitted maximal effect; tags describe the fitted curve by direction and shape.
smiles,measurement,setting,value
CC(C)(O)/C=C\C(=O)[C@](C)(O)[C@H]1[C@H](O)C[C@]2(C)[C@@H]3CC=C4[C@@H](C=C(O)C(=O)C4(C)C)[C@]3(C)C(=O)C[C@@]12C,Potency,[1],active: 148 nM
C[C@@H]1CC[C@@]2(OC1)O[C@H]1C[C@H]3[C@@H]4CC=C5C[C@@H](O[C@@H]6O[C@H](CO)[C@@H](O[C@@H]7O[C@@H](C)[C@H](O)[C@@H](O)[C@H]7O)[C@H](O)[C@H]6O[C@@H]6O[C@@H](C)[C@H](O)[C@@H](O)[C@H]6O)CC[C@]5(C)[C@H]4CC[C@]3(C)[C@H]1[C@@H]2C,Potency,[1],active: 8330 nM
COC1(CS(=O)c2ccccc2)CCN(CCc2c[nH]c3ccc(F)cc23)CC1 (configuration not stated),Potency,[2],"inconclusive: 20900 nM [inhibitor, single point]"
CN(C)NC(=O)CCC(=O)O,Potency,[1],"inconclusive: 33200 nM [inhibitor, single point]"
O=P1(NCCCl)OCCCN1CCCl (configuration not stated),Potency,[3],inactive
CCNC(=O)C[C@@H]1N=C(c2ccc(Cl)cc2)c2cc(OC)ccc2-n2c(C)nnc21,Potency,[3],"inconclusive: 1050 nM [inhibitor, full curve]"
same,Potency,[4],"inconclusive: 662 nM [inhibitor, full curve, poor fit]"
C[C@@H]1O[C@@H](O[C@@H]2C=C3CC[C@@H]4[C@H](CC[C@]5(C)[C@@H](c6ccc(=O)oc6)CC[C@]45O)[C@@]3(C)CC2)[C@H](O)[C@H](O)[C@H]1O,Potency,[2],active: 14.8 nM
C[C@@H]1O[C@@H](O[C@H]2C[C@@H](O)[C@]3(CO)[C@H]4[C@H](O)C[C@]5(C)[C@@H](C6=CC(=O)OC6)CC[C@]5(O)[C@@H]4CC[C@]3(O)C2)[C@H](O)[C@H](O)[C@H]1O,Potency,[2],active: 93.4 nM
same,Potency,[3],active: 83.3 nM
O=C(O)CNC(=O)C1C(=O)N(C2CCCCC2)C(=O)N(C2CCCCC2)C1=O,Potency,[1],inactive
same,Potency,[3],inactive
CC(O)(CS(=O)(=O)c1ccc(F)cc1)C(=O)Nc1ccc(C#N)c(C(F)(F)F)c1 (configuration not stated),Potency,[4],inactive
CSCC[C@@H](NC(=O)[C@@H](Cc1ccccc1)NC(=O)CNC(=O)CNC(=O)[C@@H](N)Cc1ccc(O)cc1)C(=O)O,Potency,[1],"inconclusive: 29500 nM [inhibitor, single point]"
CN1C(=O)COc2c(C(=O)NC3CN4CCC3CC4)cc(Cl)cc21 (configuration not stated),Potency,[1],inactive
same,Potency,[3],inactive
C[C@@H]1CN(Cc2ccc(F)cc2)CCN1C(=O)COc1ccc(Cl)cc1NC(N)=O,Potency,[1],inactive
